{"source": "patent US20090047335A1", "about": "“Anti-angiogenic peptides and methods of use thereof” (SOPHERION THERAPEUTICS, INC., priority 2004, published 2009)", "key": {"[1]": {"tested_on": "VEGF-induced angiogenesis", "test": "VEGF-induced angiogenesis in Matrigel angio-reactors in FVB/N mice, FITC-dextran fluorescence", "assay_type": "in vivo", "details": "experiment 2", "description": "The peptides of the invention were also tested in an in vivo model of anti-angiogenic activity. This model analyzes VEGF-induced angiogenesis as it occurs in angio-reactors filled with Matrigel in wild-type FVB/N mice (Guedez et al., 2003, Am. J. Pathol. 162:1431-1439).\n• Sterile, polyethene tubing (0.14 cm internal diameter) is cut to standard 1 cm lengths using a plexiglass template and single edge razor blade. These tubes are sealed at one end with nail-polish. Into the tubes, 20 μl of Matrigel (growth factor free obtained from BD Biosciences) containing 500 ng/ml VEGF with or without the indicated peptides is injected. After one hour of polymerization of the Matrigel at room temperature the angio-reactors are subcutaneously implanted into both flanks of wild-type FVB/N female mice (8-10 weeks old).\n• After 10 days, angiogenesis in the angio-reactors is determined. Mice receive a 100 μl injection of 25 mg/ml of FITC-dextran in phosphate-buffered saline (PBS) via tail vein 20 minutes before collection of the angio-reactors. Quantification of vessel functionality is performed by removal of the Matrigel from the angio-reactors and the fluorescence is measured using a FLUOstar Galaxy microplate reader (excitation 485 nm, emission 520 nm, BMG Labtechnologies GmbH, Germany). The mean relative fluorescence±SD for 10 angio-reactors is determined and statistical analysis performed."}, "[2]": {"tested_on": "Mouse B16-F1 melanoma cells", "test": "Growth of subcutaneous B16 melanoma tumor in C57BL/6 mice", "assay_type": "in vivo", "design": "subcutaneous B16 melanoma tumor measurement, Average: unit not given beside the values", "details": "for subcutaneous B16 melanoma tumor measurement, Average: group average", "description": "The peptides of the invention were tested in an in vivo model of anti-tumor activity. This model compares the growth of subcutaneous B16 melanoma tumor either untreated or treated with either 20 mg/kg, 40 mg/kg, 100 mg/kg daily ip doses of ST100,059.\nMale C57BL/6 mice were obtained with a mean body weight of 20±2 g. Mouse B16-F1 melanoma cells were implanted subcutaneously (5×10^5 cell per animal). Peptides (formulated in water) were administered ip daily starting the day after injection of cells. Tumors became palpable around 9 days after injection of the cells. Tumors were then measured every 2 days."}, "[3]": {"tested_on": "human breast cancer MDA-MB231 tumor xenografts", "test": "Human breast cancer MDA-MB231 tumor xenografts in nude mice: caliper and actual tumor weight, necrotic score", "assay_type": "in vivo", "details": "for actual tumor weight, Average / caliper tumor weight, Average: group average; for actual tumor weight, Median / caliper tumor weight, Median: group median; for caliper tumor weight / actual tumor weight: individual mouse, listed as 059; for caliper tumor weight: caliper measurement converted by (W^2×L)/2; for actual tumor weight: excised tumor weighed", "description": "The peptides of the invention were tested in an in vivo model of anti-tumor activity. This model compares the growth of the human breast cancer MDA-MB231 tumor xenografts in nude mice treated with 10 mg/kg or 20 mg/kg daily ip of ST100,059, docetaxel or saline.\nFemale nude mice (nu/nu) between 5 and 6 weeks of age weighing approximately 20 g were obtained from Harlan, Inc. Animals were implanted subcutaneously (s.c.) by trocar with fragments of human tumors harvested from s.c. grown tumors in nude mice hosts. When the tumors were approximately 60-75 mg in size (about 10-15 days following implantation), the animals were pair-matched into treatment and control groups. Each group contained 8-10 mice, each of which is ear-tagged and followed individually throughout the experiment.\nThe administration of drugs or controls began the day the animals were pair-matched with tumor size of about 70 mg (Day 1). Mice were weighed and tumor measurements were obtained using calipers twice weekly, starting on Day 1. These tumor measurements were converted to mg tumor weight by the standard formula, (W^2×L)/2. Upon termination of the experiment, the mice were weighed, sacrificed and their tumors were excised. The tumors were weighed, and the mean and medium tumor weight per group was calculated.\nFor each group, the table reports the caliper measurements and the actual tumor weights obtained as described above."}, "[4]": {"tested_on": "mouse B16 melanoma tumor lung metastases", "test": "B16 melanoma lung metastasis model in C57BL/6 mice", "assay_type": "in vivo", "details": "for number of B16 melanoma lung metastases, AVE: group average, day 14"}, "[5]": {"tested_on": "VEGF induced gene expression changes", "test": "VEGF induced gene expression changes in HUVEC, Affymetrix Human U133 Plus 2.0 arrays", "assay_type": "cell-based", "details": "200 microgram/ml; VEGF165 25 ng/ml; 24 hours"}, "phosphorylation of MAPK": {"tested_on": "phosphorylation of MAPK", "test": "VEGF induced intracellular signaling in HUVEC: MAPK phosphorylation, Western blot", "assay_type": "cell-based, human", "details": "increasing concentrations; VEGF165 25 ng/ml, 10 minutes; FIG. 21"}, "[6]": {"tested_on": "Human umbilical vein endothelial cells (HUVEC)", "test": "VEGF-mediated HUVEC survival, WST-1 assay", "assay_type": "cell-based", "details": "for WST-1 induced colorimetric change measured at 440 nm, average: average of 4 wells; for WST-1 induced colorimetric change measured at 440 nm, average / WST-1 induced colorimetric change measured at 440 nm: HUVEC, Table 8; for WST-1 induced colorimetric change measured at 440 nm: single wells, VEGF 10 ng/ml, 72 h"}, "KDR": {"biological_target": "KDR (Homo sapiens, UniProt P35968)", "sequence (P35968 20-1356)": "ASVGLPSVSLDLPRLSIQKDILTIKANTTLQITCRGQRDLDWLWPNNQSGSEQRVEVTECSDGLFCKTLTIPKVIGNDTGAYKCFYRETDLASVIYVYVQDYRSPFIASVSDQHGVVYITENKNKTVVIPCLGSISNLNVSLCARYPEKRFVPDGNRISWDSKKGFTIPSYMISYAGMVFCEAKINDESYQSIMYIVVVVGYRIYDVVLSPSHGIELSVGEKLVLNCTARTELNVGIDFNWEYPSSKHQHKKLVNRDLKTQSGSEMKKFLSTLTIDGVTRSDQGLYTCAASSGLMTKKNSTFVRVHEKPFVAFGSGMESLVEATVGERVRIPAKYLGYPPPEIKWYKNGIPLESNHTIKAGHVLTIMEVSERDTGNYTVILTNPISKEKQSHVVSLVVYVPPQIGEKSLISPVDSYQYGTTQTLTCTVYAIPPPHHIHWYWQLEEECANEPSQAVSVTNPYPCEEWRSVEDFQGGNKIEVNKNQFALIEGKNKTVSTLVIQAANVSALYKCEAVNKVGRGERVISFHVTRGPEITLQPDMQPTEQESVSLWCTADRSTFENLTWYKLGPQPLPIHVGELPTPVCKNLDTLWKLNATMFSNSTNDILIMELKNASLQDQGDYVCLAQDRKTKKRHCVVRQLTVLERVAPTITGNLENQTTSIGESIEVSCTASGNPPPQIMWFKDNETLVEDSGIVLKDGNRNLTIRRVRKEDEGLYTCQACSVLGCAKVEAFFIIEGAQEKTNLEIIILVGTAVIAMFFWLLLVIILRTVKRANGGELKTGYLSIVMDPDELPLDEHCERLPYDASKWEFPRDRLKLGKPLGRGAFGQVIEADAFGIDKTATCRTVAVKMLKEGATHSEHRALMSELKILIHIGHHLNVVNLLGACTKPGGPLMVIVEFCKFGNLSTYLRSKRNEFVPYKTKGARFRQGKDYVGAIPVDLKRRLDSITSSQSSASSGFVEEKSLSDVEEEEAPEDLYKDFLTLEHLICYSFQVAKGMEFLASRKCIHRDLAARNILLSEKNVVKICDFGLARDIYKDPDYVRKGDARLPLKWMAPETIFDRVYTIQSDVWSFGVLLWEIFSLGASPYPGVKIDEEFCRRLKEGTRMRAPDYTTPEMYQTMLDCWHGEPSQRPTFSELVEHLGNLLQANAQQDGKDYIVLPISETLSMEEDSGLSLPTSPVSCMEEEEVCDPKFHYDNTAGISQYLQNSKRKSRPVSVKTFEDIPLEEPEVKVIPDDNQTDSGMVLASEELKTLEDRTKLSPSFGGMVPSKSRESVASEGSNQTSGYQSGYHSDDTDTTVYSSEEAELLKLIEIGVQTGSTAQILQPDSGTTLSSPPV", "test": "Anti-angiogenic IC50 / blocking of VEGF binding to KDR (test not specified)"}, "[7]": {"details": "Bonferroni's Multiple Comparison Test"}}, "note": "Several values for one entry are separate records, joined by “and”; a condition that tells them apart may be missing. Identical values can stand only once. At least one peptide structure holds a part that was inferred or is arguable (an end, a ring closure or a residue). Some entries repeat one wording, which the source may state once for all of them."}
{"smiles": "CC(C)C[C@@H](NC(=O)[C@H]1CCCN1C(=O)[C@H]1CCCN1C(=O)[C@@H](Cc1c[nH]cn1)NC(=O)[C@@H](CO)NC(=O)[C@@H](CO)NC(=O)[C@@H](CCC(N)=O)NC(=O)[C@@H](CO)NC(=O)[C@H]1CCCN1)C(=O)N[C@H](CO)C(=O)N[C@@H](C(=O)N[C@H](C)C(=O)O)[C@H](C)O", "note": "[ST100,059, PSQSSHPPLSTA]", "values": [{"measurement": "Mean Diff., ST 038 vs ST 059", "setting": "[1]; [7]", "value": 148.8}, {"measurement": "Mean Diff., pbs vs inhibitor group", "setting": "[1]; [7]", "value": "−283.6"}, {"measurement": "Mean Diff., tsp vs inhibitor group", "setting": "[1]; [7]", "value": "−283.1"}, {"measurement": "Mean Diff., vegf vs inhibitor group", "setting": "[1]; [7]", "value": 2362}, {"measurement": "relative fluorescence of angio-reactors, average", "setting": "[1]; group average", "value": 918.1111}, {"measurement": "relative fluorescence of angio-reactors, median", "setting": "[1]; group median", "value": 426}, {"measurement": "VEGF-mediated angiogenesis in angio-reactors (in words)", "setting": "[1]; medians, FIG. 16", "value": "clearly inhibit VEGF-mediated angiogenesis"}, {"measurement": "growth of subcutaneous B16 melanoma tumors (in words)", "setting": "[2]; 20, 40, 100 mg/kg daily ip", "value": "able to inhibit the growth of subcutaneous B16 melanoma tumors in a statistically significant and dose responsive fashion"}, {"measurement": "subcutaneous B16 melanoma tumor measurement, Average", "setting": "[2]; 20 mg/kg daily ip, Day 11", "value": 234.60}, {"measurement": "subcutaneous B16 melanoma tumor measurement, Average", "setting": "[2]; 20 mg/kg daily ip, Day 13", "value": 512.13}, {"measurement": "subcutaneous B16 melanoma tumor measurement, Average", "setting": "[2]; 20 mg/kg daily ip, Day 15", "value": 965.58}, {"measurement": "subcutaneous B16 melanoma tumor measurement, Average", "setting": "[2]; 20 mg/kg daily ip, Day 17", "value": 1654.94}, {"measurement": "subcutaneous B16 melanoma tumor measurement, Average", "setting": "[2]; 40 mg/kg daily ip, Day 11", "value": 227.70}, {"measurement": "subcutaneous B16 melanoma tumor measurement, Average", "setting": "[2]; 40 mg/kg daily ip, Day 13", "value": 467.72}, {"measurement": "subcutaneous B16 melanoma tumor measurement, Average", "setting": "[2]; 40 mg/kg daily ip, Day 15", "value": 869.00}, {"measurement": "subcutaneous B16 melanoma tumor measurement, Average", "setting": "[2]; 40 mg/kg daily ip, Day 17", "value": 1440.94}, {"measurement": "subcutaneous B16 melanoma tumor measurement, Average", "setting": "[2]; 100 mg/kg daily ip, Day 11", "value": 202.38}, {"measurement": "subcutaneous B16 melanoma tumor measurement, Average", "setting": "[2]; 100 mg/kg daily ip, Day 13", "value": 402.88}, {"measurement": "subcutaneous B16 melanoma tumor measurement, Average", "setting": "[2]; 100 mg/kg daily ip, Day 15", "value": 743.03}, {"measurement": "subcutaneous B16 melanoma tumor measurement, Average", "setting": "[2]; 100 mg/kg daily ip, Day 17", "value": 1181.54}, {"measurement": "subcutaneous B16 melanoma tumor measurement", "setting": "[2]; single mice, 100 mg/kg daily ip, Day 11, listed as ST 59, 100 mg/kg", "value": "260.00 and 225.50 and 162.00 and 270.00 and 136.13 and 196.00 and 167.06"}, {"measurement": "actual tumor weight, Average", "setting": "[3]; 10 mg/kg", "value": 1473, "unit": "mg"}, {"measurement": "caliper tumor weight, Average", "setting": "[3]; 10 mg/kg", "value": 2047, "unit": "mg"}, {"measurement": "actual tumor weight, Median", "setting": "[3]; 10 mg/kg", "value": 1287, "unit": "mg"}, {"measurement": "caliper tumor weight, Median", "setting": "[3]; 10 mg/kg", "value": 1568, "unit": "mg"}, {"measurement": "caliper tumor weight", "setting": "[3]; 10 mg/kg", "value": "1568 mg (2×) and 786.5 mg and 320 mg and 3610 mg and 1183 mg and 3402 mg and 3240 mg and 2745.5 mg"}, {"measurement": "actual tumor weight", "setting": "[3]; 10 mg/kg", "value": "831 mg and 503 mg and 263 mg and 2915 mg and 674 mg and 2726 mg and 1731 mg and 2327 mg and 1287 mg"}, {"measurement": "actual tumor weight, Average", "setting": "[3]; 20 mg/kg", "value": 1037.222, "unit": "mg"}, {"measurement": "caliper tumor weight, Average", "setting": "[3]; 20 mg/kg", "value": 1595.889, "unit": "mg"}, {"measurement": "actual tumor weight, Median", "setting": "[3]; 20 mg/kg", "value": 884, "unit": "mg"}, {"measurement": "caliper tumor weight, Median", "setting": "[3]; 20 mg/kg", "value": 1800, "unit": "mg"}, {"measurement": "caliper tumor weight", "setting": "[3]; 20 mg/kg", "value": "2456.5 mg and 364.5 mg and 2432 mg and 2250 mg and 1267.5 mg and 786.5 mg and 1800 mg and 405 mg and 2601 mg"}, {"measurement": "actual tumor weight", "setting": "[3]; 20 mg/kg", "value": "1368 mg and 313 mg and 1717 mg and 2039 mg and 819 mg and 657 mg and 884 mg and 138 mg and 1400 mg"}, {"measurement": "growth and angiogenesis of human breast cancer tumor (in words)", "setting": "[3]; 10 or 20 mg/kg ip, nude mice", "value": "can inhibit the growth and angiogenesis"}, {"measurement": "number of lung metastases (in words)", "setting": "[4]; 100 mg/kg ip daily or every 2 days", "value": "clearly reduces the number of lung metastases"}, {"measurement": "number of B16 melanoma lung metastases, AVE", "setting": "[4]; QD: 100 mg/kg/mouse ip daily", "value": 6.25}, {"measurement": "number of B16 melanoma lung metastases, AVE", "setting": "[4]; QOD: 100 mg/kg/mouse ip every 2 days", "value": 13.13}, {"measurement": "VEGF induced gene expression changes (in words)", "setting": "[5]", "value": "able to inhibit VEGF induced gene expression changes"}, {"measurement": "upregulation of genes specific for the KDR selective mutant of VEGF (in words)", "setting": "[5]", "value": "completely inhibited"}, {"measurement": "level of MAPK phosphorylation (in words)", "setting": "phosphorylation of MAPK", "value": "reduced the level of MPK phoshorylation"}, {"measurement": "WST-1 induced colorimetric change measured at 440 nm, average", "setting": "[6]; peptide 10 μg/ml", "value": 0.7263}, {"measurement": "WST-1 induced colorimetric change measured at 440 nm, average", "setting": "[6]; peptide 30 μg/ml", "value": 0.7155}, {"measurement": "WST-1 induced colorimetric change measured at 440 nm, average", "setting": "[6]; peptide 100 μg/ml", "value": 0.6605}, {"measurement": "inhibitory activity on VEGF-mediated HUVEC survival (in words)", "setting": "[6]; comparison with ST100,038", "value": "inhibitory activity similar to ST100,038"}, {"measurement": "WST-1 induced colorimetric change measured at 440 nm", "setting": "[6]; peptide 10 μg/ml", "value": "0.73 and 0.733 and 0.721"}, {"measurement": "WST-1 induced colorimetric change measured at 440 nm", "setting": "[6]; peptide 30 μg/ml", "value": "0.741 and 0.694 and 0.681 and 0.746"}, {"measurement": "WST-1 induced colorimetric change measured at 440 nm", "setting": "[6]; peptide 100 μg/ml", "value": "0.681 and 0.666 and 0.639 and 0.656"}, {"measurement": "selectivity of blocking VEGF binding, KDR vs FLT-1 (in words)", "setting": "KDR", "value": "only blocks VEGF binding to KDR and not FLT-1"}]}
